Assays:
[1] = target: T1, Recombinant human serum albumin (human, UniProt P02768); assay: SPR, VHH-Fc captured on anti-human Fc, human albumin as analyte, pH 6.0; pH 6.0
T1 construct: Analyte in SPR, 0-500 nM

[2] = target: T2, Recombinant rat serum albumin (rat, UniProt P02770 25-608); assay: SPR, Fc fusion captured on anti-human Fc, rat albumin as analyte, pH 6.0
T2 construct: Analyte in SPR, 0-500 nM

[3] = target: T3, Recombinant mouse serum albumin (mouse, UniProt P07724 25-608); assay: SPR, Fc fusion captured on anti-human Fc, mouse albumin as analyte, pH 6.0
T3 construct: Analyte in SPR, 0-500 nM

[4] = target: T1, Recombinant human serum albumin; assay: SPR, Fc-VHH captured on anti-human Fc, human albumin as analyte, pH 6.0; pH 6.0

T3 sequence (P07724 25-608 limits assumed): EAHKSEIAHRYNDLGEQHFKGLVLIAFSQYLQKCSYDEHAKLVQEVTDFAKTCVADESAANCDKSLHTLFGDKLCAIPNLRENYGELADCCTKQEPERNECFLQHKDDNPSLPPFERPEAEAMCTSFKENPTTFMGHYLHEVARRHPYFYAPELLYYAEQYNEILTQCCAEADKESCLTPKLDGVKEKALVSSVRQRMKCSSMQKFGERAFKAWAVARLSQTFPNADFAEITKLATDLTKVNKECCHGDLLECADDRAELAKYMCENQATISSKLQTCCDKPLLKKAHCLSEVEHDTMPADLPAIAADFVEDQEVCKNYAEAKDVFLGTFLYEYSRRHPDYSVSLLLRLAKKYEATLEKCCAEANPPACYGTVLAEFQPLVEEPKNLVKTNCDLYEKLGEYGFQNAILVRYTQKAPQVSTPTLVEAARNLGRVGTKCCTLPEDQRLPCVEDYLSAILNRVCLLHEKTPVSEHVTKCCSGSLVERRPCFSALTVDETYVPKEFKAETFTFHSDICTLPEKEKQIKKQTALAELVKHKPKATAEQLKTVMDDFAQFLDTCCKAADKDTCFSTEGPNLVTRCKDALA
T2 sequence (P02770 25-608 limits assumed): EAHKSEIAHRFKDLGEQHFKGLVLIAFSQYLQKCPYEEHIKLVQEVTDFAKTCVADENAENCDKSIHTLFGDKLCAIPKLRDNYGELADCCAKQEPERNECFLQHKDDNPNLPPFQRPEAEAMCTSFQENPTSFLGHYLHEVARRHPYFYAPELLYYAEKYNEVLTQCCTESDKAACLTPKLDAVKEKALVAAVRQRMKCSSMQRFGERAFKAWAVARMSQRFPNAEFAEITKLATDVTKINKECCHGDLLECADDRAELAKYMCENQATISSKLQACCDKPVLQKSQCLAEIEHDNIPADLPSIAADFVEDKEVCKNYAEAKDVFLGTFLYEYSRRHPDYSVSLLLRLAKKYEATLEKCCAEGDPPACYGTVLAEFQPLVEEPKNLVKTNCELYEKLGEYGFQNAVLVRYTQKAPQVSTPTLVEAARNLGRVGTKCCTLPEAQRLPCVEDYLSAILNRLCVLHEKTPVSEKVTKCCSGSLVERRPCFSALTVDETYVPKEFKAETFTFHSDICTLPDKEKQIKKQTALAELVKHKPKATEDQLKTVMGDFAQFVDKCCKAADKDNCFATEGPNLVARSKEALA

Binder | Kd [1] [nM] | koff [1] [s⁻¹] | kon [1] [M⁻¹ s⁻¹] | other results
VHH 1-4-Fc fusion (SEQ ID NO: 26) (Fc fusion) QVQLVESGGGLVQPGGSLRLSCAASGFTFGQFGMSWVRQAPAKGPERVSAISSGGSGTIYADSVKGRFTISRDNAKNTLYLQMNSLKPEDTAVYYCTIGSSTTPSGPGQGTQVTVSSGGGGS[letters of human IgG1 Fc left out] | 36.4 | 0.013 | 357000 | –
VHH 21-Fc fusion (SEQ ID NO: 162) (Fc fusion) QVQLVESGGGLVQPGGSLRLSCAASGFSFGSFGMSWVRQAPGKGPEWVSAIDSGGADTRYAETVKGRFTISRDNAKKTLYLQMNSLKPEDTAVYYCTIGRSTSRGSQGTQVTVSSGGGGS[letters of human IgG1 Fc left out] | – | – | – | Kd [2]: 1680 nM; koff [2]: 0.0802 s⁻¹; kon [2]: 47700 M⁻¹ s⁻¹; Kd [3]: 162 nM; koff [3]: 0.0245 s⁻¹; kon [3]: 151000 M⁻¹ s⁻¹
VHH 9-4-Fc fusion (SEQ ID NO: 200) (Fc fusion) EVQLVESGGGLVQPGGSLRLSCAASGFTFGSFGMSWVRQAPGKGLEWVSAIDSGGADTRYAESVKGRFTISRDNSKNTLYLQMNSLRAEDTAVYYCTIGRSASRWGQGTTVTVSSGGGGS[letters of human IgG1 Fc left out] | 34.2 | 0.0033 | 96500 | –
Fc-VHH 1-8 fusion (SEQ ID NO: 42) (Fc fusion) [letters of human IgG1 Fc left out]GGGSEVQLVESGGGLVQPGGSLRLSCAASGFTFGQFGMSWVRQAPGKGLEWVSAISSDGSGTIYADSVKGRFTISRDNSKNTLYLQMNSLRAEDTAVYYCTIGSSTTPSGPGQGTTVTVSS | – | – | – | Kd [4]: 142 nM; koff [4]: 0.00943 s⁻¹; kon [4]: 66200 M⁻¹ s⁻¹
Fc-VHH 1-10 fusion (SEQ ID NO: 44) (Fc fusion) [letters of human IgG1 Fc left out]GGGSEVQLVESGGGLVQPGGSLRLSCAASGFTFGQFGMSWFRQAPGKEREFVSAISSDGSGTIYADSVKGRFTISRDNSKNTLYLQMNSLRAEDTAVYYCTIGSSTTPSGPGQGTTVTVSS | – | – | – | Kd [4]: 45.3 nM; koff [4]: 0.00804 s⁻¹; kon [4]: 177000 M⁻¹ s⁻¹

Now from value to binder, other results behind:

Kd [1] [nM] | koff [1] [s⁻¹] | kon [1] [M⁻¹ s⁻¹] | Binder | other results
43.4 | 0.00368 | 84800 | VHH 1-7-Fc fusion (SEQ ID NO: 29) (Fc fusion) EVQLVESGGGLVQPGGSLRLSCAASGFTFGQFGMSWVRQAPGKGLEWVSAISSDGSGTIYADSVKGRFTISRDNSKNTLYLQMNSLRAEDTAVYYCTIGSSTTPSGWGQGTTVTVSSGGGGS[letters of human IgG1 Fc left out] | –
26.3 | 0.00525 | 199000 | VHH 9-6-Fc fusion (SEQ ID NO: 202) (Fc fusion) EVQLVESGGGLVQPGGSLRLSCAASGFTFGSFGMSWFRQAPGKEREFVSAIDSGGADTRYAESVKGRFTISRDNSKNTLYLQMNSLRAEDTAVYYCTIGRSASRWGQGTTVTVSSGGGGS[letters of human IgG1 Fc left out] | –
8.94 | 0.00393 | 439000 | VHH 9-7-Fc fusion (SEQ ID NO: 203) (Fc fusion) EVQLVESGGGLVQPGGSLRLSCAASGFTFGSFGMSWFRQAPGKEREFVSAIDSGGADTRYAESVKGRFTISRDNSKNTLYLQMNSLRAEDTAVYYCTIGRSASRGGQGTTVTVSSGGGGS[letters of human IgG1 Fc left out] | –

— patent US20260055169A1 (PARAGON THERAPEUTICS, published 2026)
